Results reported in article PMC12820563.
This is one part of the list. The list includes weakly bound sequences.

Biological target: T1, MBP-FoxP3dN (UniProt Q99JB6)
T1 sequence: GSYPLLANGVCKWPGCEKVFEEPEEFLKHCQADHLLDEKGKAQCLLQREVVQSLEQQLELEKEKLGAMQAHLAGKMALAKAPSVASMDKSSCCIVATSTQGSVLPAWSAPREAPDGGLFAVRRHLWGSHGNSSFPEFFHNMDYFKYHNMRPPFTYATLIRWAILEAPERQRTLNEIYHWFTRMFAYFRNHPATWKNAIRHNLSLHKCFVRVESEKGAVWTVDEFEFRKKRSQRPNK
Test: PD-seq (MBP pull-down with sequencing)
Settings: 20 mM Tris-HCl pH 7.5, 100 mM NaCl, 1.5 mM MgCl2, 0.4 uM protein, 0.1 uM dsDNA library, 30 min, room temperature, amylose pull-down; high values mean tight binding; double strand, one strand shown

Sequence	binding signal (RPM ratio (pull-down/input))
GATGATTGTTCTCCCAGCTGATGAATTCGTTATGTCGAGTAAACAAATTTTCCTAATCTTTCTGTTCAAGCGCCATCTAC	3
GATGATTGTTCTCCCAGCTGATGAATTGAGATACTCGAGTAAACAAATTTTCCTAATCTTTCTGTTCAAGCGCCATCTAC	0.763
GATGATTGTTCTCCCAGCTGATGAATTACTACCCTCGAGTAAACAAATTTTCCTAATCTTTCTGTTCAAGCGCCATCTAC	0.341
GATGATTGTTCTCCCAGCTGATGAATTCTAAAGTTCGAGTAAACAAATTTTCCTAATCTTTCTGTTCAAGCGCCATCTAC	0.255
GATGATTGTTCTCCCAGCTGATGAATTCCCCGTGTCGAGTAAACAAATTTTCCTAATCTTTCTGTTCAAGCGCCATCTAC	0.28
GATGATTGTTCTCCCAGCTGATGAATTTTATGCTTCGAGTAAACAAATTTTCCTAATCTTTCTGTTCAAGCGCCATCTAC	0.836
GATGATTGTTCTCCCAGCTGATGAATTGAGCGCATCGAGTAAACAAATTTTCCTAATCTTTCTGTTCAAGCGCCATCTAC	1.34
GATGATTGTTCTCCCAGCTGATGAATTTGTCGTCTCGAGTAAACAAATTTTCCTAATCTTTCTGTTCAAGCGCCATCTAC	5.07
GATGATTGTTCTCCCAGCTGATGAATTGAGGTCGTCGAGTAAACAAATTTTCCTAATCTTTCTGTTCAAGCGCCATCTAC	0.464
GATGATTGTTCTCCCAGCTGATGAATTTCTATAGTCGAGTAAACAAATTTTCCTAATCTTTCTGTTCAAGCGCCATCTAC	0.277
GATGATTGTTCTCCCAGCTGATGAATTCGGTCATTCGAGTAAACAAATTTTCCTAATCTTTCTGTTCAAGCGCCATCTAC	0.728
GATGATTGTTCTCCCAGCTGATGAATTCGACAATTCGAGTAAACAAATTTTCCTAATCTTTCTGTTCAAGCGCCATCTAC	0.414
GATGATTGTTCTCCCAGCTGATGAATTTAAGCTTTCGAGTAAACAAATTTTCCTAATCTTTCTGTTCAAGCGCCATCTAC	0.885
GATGATTGTTCTCCCAGCTGATGAATTCATGTGATCGAGTAAACAAATTTTCCTAATCTTTCTGTTCAAGCGCCATCTAC	0.552
GATGATTGTTCTCCCAGCTGATGAATTGTTGACCTCGAGTAAACAAATTTTCCTAATCTTTCTGTTCAAGCGCCATCTAC	3.26
GATGATTGTTCTCCCAGCTGATGAATTTCTTCGCTCGAGTAAACAAATTTTCCTAATCTTTCTGTTCAAGCGCCATCTAC	0.197
GATGATTGTTCTCCCAGCTGATGAATTACATCGCTCGAGTAAACAAATTTTCCTAATCTTTCTGTTCAAGCGCCATCTAC	0.487
GATGATTGTTCTCCCAGCTGATGAATTTAGCATCTCGAGTAAACAAATTTTCCTAATCTTTCTGTTCAAGCGCCATCTAC	6.55
GATGATTGTTCTCCCAGCTGATGAATTTAATAGGTCGAGTAAACAAATTTTCCTAATCTTTCTGTTCAAGCGCCATCTAC	0.937
GATGATTGTTCTCCCAGCTGATGAATTGCGACTCTCGAGTAAACAAATTTTCCTAATCTTTCTGTTCAAGCGCCATCTAC	2.99

Sequence	binding signal (RPM ratio (pull-down/input))
GATGATTGTTCTCCCAGCTGATGAATTGCCGATATCGAGTAAACAAATTTTCCTAATCTTTCTGTTCAAGCGCCATCTAC	0.657
GATGATTGTTCTCCCAGCTGATGAATTATCATGTTCGAGTAAACAAATTTTCCTAATCTTTCTGTTCAAGCGCCATCTAC	0.619
GATGATTGTTCTCCCAGCTGATGAATTGTCGTATTCGAGTAAACAAATTTTCCTAATCTTTCTGTTCAAGCGCCATCTAC	1.46
GATGATTGTTCTCCCAGCTGATGAATTAGCAAATTCGAGTAAACAAATTTTCCTAATCTTTCTGTTCAAGCGCCATCTAC	0.351
GATGATTGTTCTCCCAGCTGATGAATTGCGTTAATCGAGTAAACAAATTTTCCTAATCTTTCTGTTCAAGCGCCATCTAC	0.843
GATGATTGTTCTCCCAGCTGATGAATTTAGCGTTTCGAGTAAACAAATTTTCCTAATCTTTCTGTTCAAGCGCCATCTAC	3.74
GATGATTGTTCTCCCAGCTGATGAATTACTCCTGTCGAGTAAACAAATTTTCCTAATCTTTCTGTTCAAGCGCCATCTAC	0.253
GATGATTGTTCTCCCAGCTGATGAATTCTTCAGATCGAGTAAACAAATTTTCCTAATCTTTCTGTTCAAGCGCCATCTAC	0.168
GATGATTGTTCTCCCAGCTGATGAATTGAAGTAATCGAGTAAACAAATTTTCCTAATCTTTCTGTTCAAGCGCCATCTAC	0.526
GATGATTGTTCTCCCAGCTGATGAATTGAGTGTCTCGAGTAAACAAATTTTCCTAATCTTTCTGTTCAAGCGCCATCTAC	1.33
GATGATTGTTCTCCCAGCTGATGAATTTGCGCGATCGAGTAAACAAATTTTCCTAATCTTTCTGTTCAAGCGCCATCTAC	0.914
GATGATTGTTCTCCCAGCTGATGAATTCCATTGATCGAGTAAACAAATTTTCCTAATCTTTCTGTTCAAGCGCCATCTAC	0.643
GATGATTGTTCTCCCAGCTGATGAATTTCACCAGTCGAGTAAACAAATTTTCCTAATCTTTCTGTTCAAGCGCCATCTAC	0.198
GATGATTGTTCTCCCAGCTGATGAATTGTAGCAATCGAGTAAACAAATTTTCCTAATCTTTCTGTTCAAGCGCCATCTAC	2.57
GATGATTGTTCTCCCAGCTGATGAATTTTGTGCTTCGAGTAAACAAATTTTCCTAATCTTTCTGTTCAAGCGCCATCTAC	1.87
GATGATTGTTCTCCCAGCTGATGAATTAACACATTCGAGTAAACAAATTTTCCTAATCTTTCTGTTCAAGCGCCATCTAC	0.638
GATGATTGTTCTCCCAGCTGATGAATTGACTCTGTCGAGTAAACAAATTTTCCTAATCTTTCTGTTCAAGCGCCATCTAC	0.34
GATGATTGTTCTCCCAGCTGATGAATTGGTCGCCTCGAGTAAACAAATTTTCCTAATCTTTCTGTTCAAGCGCCATCTAC	0.604
GATGATTGTTCTCCCAGCTGATGAATTTCACGTATCGAGTAAACAAATTTTCCTAATCTTTCTGTTCAAGCGCCATCTAC	0.546
GATGATTGTTCTCCCAGCTGATGAATTTGCATAGTCGAGTAAACAAATTTTCCTAATCTTTCTGTTCAAGCGCCATCTAC	1.47
